Assay results: a compilation of properties of binary mixtures
The densities may have been worked out from excess volumes.

Test: xn = mol fraction of the nth substance listed

Work on CN1CCCC1=O + CCOS(=O)(=O)[O-].CC[n+]1ccn(C)c1 yielded a mass density (318.15 K, 100 kPa, x2 = 0) of 1010.5 kg/m3.
In the case of CCCC[P+](CC)(CCCC)CCCC.[Br-] + OCCOCCO, the mass density (303.15 K, 101 kPa, x1 = 0.333) is reported as 1094.6 kg/m3, the mass density (313.15 K, 101 kPa, x1 = 0.333) is reported as 1088.2 kg/m3 and the mass density (323.15 K, 101 kPa, x1 = 0.333) is reported as 1081.8 kg/m3. For the same compound, the mass density (343.15 K, 101 kPa, x1 = 0.333) was 1068.9 kg/m3.
For CCCC[n+]1ccn(C)c1.N#C[S-] + CCO, the mass density (298.15 K, 101 kPa, x2 = 0.41) was 1026 kg/m3, the mass density (298.15 K, 101 kPa, x2 = 0.6) was 991 kg/m3 and the mass density (298.15 K, 101 kPa, x2 = 0.8) was 925 kg/m3.
For CC(CC(C)(C)C)CP(=O)([O-])CC(C)CC(C)(C)C.CCCCCCCCCCCCCC[P+](CCCCCC)(CCCCCC)CCCCCC + O, the mass density (298.15 K, 100 kPa, x1 = 0.0942) was 911.1 kg/m3 and the mass density (298.15 K, 100 kPa, x1 = 0.1083) was 908.1 kg/m3.
In the case of CCCC[NH3+].O=[N+]([O-])[O-] + O, the mass density (308.15 K, 101 kPa, x2 = 0.9) is reported as 1050.5 kg/m3.
CCOS(=O)(=O)[O-].CC[n+]1ccn(C)c1 + O gave a mass density (298.15 K, 101 kPa, x1 = 0.004) of 1005.4 kg/m3, a mass density (298.15 K, 101 kPa, x1 = 0.0187) of 1034.2 kg/m3 and a mass density (298.15 K, 101 kPa, x2 = 0.9684) of 1056.7 kg/m3.
In the case of CCCC[n+]1ccn(C)c1.F[P-](F)(F)(F)(F)F + CO, the mass density (323.15 K, 110 kPa, x2 = 0.2474) is reported as 1309.8 kg/m3.
CCCCCC(=O)O + CCCC[N+](CCCC)(CCCC)CCCC.[Cl-] showed a mass density (298 K, 100 kPa, x2 = 0.5) of 956 kg/m3.
For CCCC[P+](CCCC)(CCCC)CCCC.[Br-] + Oc1ccccc1, the mass density (293.15 K, 101 kPa, x1 = 0.2) was 1073.4 kg/m3, the mass density (313.15 K, 101 kPa, x1 = 0.2) was 1059.2 kg/m3 and the mass density (323.15 K, 101 kPa, x1 = 0.2) was 1052.2 kg/m3.
Work on CCCCCCCC[N+](C)(CCCCCCCC)CCCCCCCC.[Cl-] + CCC(=O)O yielded a mass density (298 K, 100 kPa, x1 = 0.5) of 1222 kg/m3.
CC[n+]1ccn(C)c1.[Cl-] + OCC(O)CO gave a mass density (298.15 K, 101 kPa, x1 = 0.667) of 1163.6 kg/m3, a mass density (303.15 K, 101 kPa, x1 = 0.667) of 1160.7 kg/m3 and a mass density (323.15 K, 101 kPa, x1 = 0.667) of 1148.9 kg/m3. For the same compound, the mass density (333.15 K, 101 kPa, x1 = 0.667) was 1143.1 kg/m3.
In the case of C=CC[n+]1ccn(C)c1.[Cl-] + O, the mass density (293.15 K, 100 kPa, x2 = 0.013) is reported as 1149.9 kg/m3, the mass density (313.15 K, 100 kPa, x2 = 0.013) is reported as 1139 kg/m3 and the mass density (333.15 K, 100 kPa, x2 = 0.013) is reported as 1129.4 kg/m3. It also gave a mass density (353.15 K, 100 kPa, x2 = 0.013) of 1117.3 kg/m3 and a mass density (373.15 K, 100 kPa, x2 = 0.013) of 1106 kg/m3.
CCCC[n+]1ccn(C)c1.[Cl-] + OCCO gave a mass density (303.15 K, 100 kPa, x1 = 0.333) of 1092 kg/m3 and a mass density (303.15 K, 100 kPa, x1 = 0.5) of 1086 kg/m3.
In the case of CCOS(=O)(=O)[O-].CC[n+]1ccn(C)c1 + CN1CCCC1=O, the mass density (308.15 K, 100 kPa, x1 = 1) is reported as 1229.5 kg/m3, the mass density (323.15 K, 100 kPa, x1 = 0.8821) is reported as 1207.5 kg/m3 and the mass density (323.15 K, 100 kPa, x1 = 1) is reported as 1219.5 kg/m3. The mass density (333.15 K, 100 kPa, x1 = 0.4973) was 1145.5 kg/m3.
Compound CCCCCCCC[N+](CCCCCCCC)(CCCCCCCC)CCCCCCCC.[Br-] + CCCCCCCCCC(=O)O has a mass density (333 K, 100 kPa, x1 = 0.333) of 910 kg/m3.
Work on CC[n+]1ccn(C)c1.N#C[B-](C#N)(C#N)C#N + CCO yielded a mass density (298.15 K, 101 kPa, x2 = 0.2) of 1022 kg/m3, a mass density (298.15 K, 101 kPa, x2 = 0.4) of 1001 kg/m3 and a mass density (298.15 K, 101 kPa, x2 = 0.8) of 914 kg/m3.
CC[NH3+].O=[N+]([O-])[O-] + CO gave a mass density (298.15 K, 101 kPa, x2 = 0) of 1209.2 kg/m3, a mass density (298.15 K, 101 kPa, x2 = 0.091) of 1194.2 kg/m3 and a mass density (298.15 K, 101 kPa, x2 = 0.3026) of 1151.2 kg/m3. For the same compound, the mass density (298.15 K, 101 kPa, x2 = 0.3955) was 1127.7 kg/m3, the mass density (298.15 K, 101 kPa, x2 = 0.4958) was 1097.5 kg/m3 and the mass density (298.15 K, 101 kPa, x2 = 0.5958) was 1061.1 kg/m3. It also gave a mass density (298.15 K, 101 kPa, x2 = 0.701) of 1014.1 kg/m3 and a mass density (298.15 K, 101 kPa, x2 = 0.8031) of 956.8 kg/m3.
In the case of CCCC[n+]1ccn(C)c1.[Cl-] + OCC(O)CO, the mass density (298.15 K, 101 kPa, x2 = 0.333) is reported as 1167.8 kg/m3, the mass density (303.15 K, 101 kPa, x2 = 0.333) is reported as 1164.7 kg/m3 and the mass density (313.15 K, 101 kPa, x2 = 0.333) is reported as 1158.5 kg/m3.
Compound CC[n+]1ccn(C)c1.O=S(=O)([N-]S(=O)(=O)C(F)(F)F)C(F)(F)F + O has a mass density (300 K, 101.3 kPa, x1 = 0.902) of 1510.5 kg/m3, a mass density (300 K, 101.3 kPa, x1 = 0.958) of 1513.8 kg/m3 and a mass density (300 K, 101.3 kPa, x2 = 0.013) of 1515.6 kg/m3.
For c1c[nH]cn1 + CC[n+]1ccn(C)c1.[Cl-], the mass density (298.2 K, 100 kPa, x2 = 0.333) was 1122.8 kg/m3 and the mass density (298.2 K, 100 kPa, x2 = 0.667) was 1133.9 kg/m3.
With CCC[N+]1(C)CCCC1.O=S(=O)([N-]S(=O)(=O)C(F)(F)F)C(F)(F)F + CCO the mass density (308.15 K, 101 kPa, x2 = 0.2816) was 1371.5 kg/m3 and the mass density (308.15 K, 101 kPa, x2 = 0.8034) was 1129.5 kg/m3.
Compound CO + CC[NH3+].O=[N+]([O-])[O-] has a mass density (298.15 K, 101 kPa, x1 = 1) of 786.7 kg/m3.
In the case of CCCCCCCCOS(=O)(=O)[O-].CCCC[n+]1ccn(C)c1 + CO, the mass density (373.15 K, 110 kPa, x2 = 0) is reported as 1022 kg/m3.
With CC(O)C(=O)[O-].CN(C)CCOCC[NH+](C)C + O the mass density (298.15 K, 100 kPa, x1 = 0.0172) was 1038 kg/m3, the mass density (298.15 K, 100 kPa, x1 = 0.0301) was 1056 kg/m3 and the mass density (298.15 K, 100 kPa, x1 = 0.0456) was 1074 kg/m3. It also gave a mass density (298.15 K, 100 kPa, x1 = 0.0985) of 1135 kg/m3.
CCCCCC[n+]1ccn(C)c1.F[P-](F)(F)(F)(F)F + O gave a mass density (298 K, 101 kPa, x2 = 0.1334) of 1240 kg/m3.
CO + CCCC[n+]1ccn(C)c1.F[P-](F)(F)(F)(F)F gave a mass density (298.15 K, 100 kPa, x1 = 1) of 785.9 kg/m3, a mass density (348.15 K, 100 kPa, x1 = 1) of 737.2 kg/m3 and a mass density (373.15 K, 100 kPa, x1 = 1) of 710.5 kg/m3.
CCCCCCCC/C=C\CCCCCCCC(=O)O + CC[N+](CC)(CC)CC.[Cl-] showed a mass density (303.1 K, 100 kPa, x2 = 0.25) of 906 kg/m3, a mass density (313.1 K, 100 kPa, x2 = 0.25) of 899.6 kg/m3 and a mass density (323.1 K, 100 kPa, x2 = 0.25) of 893.4 kg/m3. The mass density (333.2 K, 100 kPa, x2 = 0.25) was 887 kg/m3.
With CCCC[n+]1ccn(C)c1.F[P-](F)(F)(F)(F)F + CCCC[n+]1ccn(C)c1.F[B-](F)(F)F the mass density (298.15 K, 100 kPa, x1 = 0.5) was 1287.5 kg/m3.
CCCCCCCC[N+](C)(CCCCCCCC)CCCCCCCC.O=S(=O)([N-]S(=O)(=O)C(F)(F)F)C(F)(F)F + CCOC(C)=O showed a mass density (313.15 K, 101 kPa, x2 = 0.0791) of 1078.1 kg/m3.
In the case of CC(O)C(=O)O (stereo not drawn) + CCCC[N+](CCCC)(CCCC)CCCC.[Cl-], the mass density (293.15 K, 100 kPa, x1 = 0.75) is reported as 1049.8 kg/m3, the mass density (298.15 K, 100 kPa, x1 = 0.75) is reported as 1046.2 kg/m3 and the mass density (303.15 K, 100 kPa, x1 = 0.75) is reported as 1042.5 kg/m3. The mass density (308.15 K, 100 kPa, x1 = 0.75) was 1038.9 kg/m3, the mass density (313.15 K, 100 kPa, x1 = 0.75) was 1035.4 kg/m3 and the mass density (318.15 K, 100 kPa, x1 = 0.75) was 1031.9 kg/m3.
Compound CCCC(=O)[O-].C[NH2+]CCO + CCCOC(C)=O has a mass density (308.15 K, 101 kPa, x2 = 0) of 1032.5 kg/m3 and a mass density (308.16 K, 101 kPa, x2 = 0.207) of 1003.5 kg/m3.
In the case of CC[N+](CC)(CC)CC.[Cl-] + O, the mass density (281.1 K, 101 kPa, x1 = 0.1201) is reported as 1035.6 kg/m3 and the mass density (298.15 K, 101 kPa, x1 = 0.1201) is reported as 1025.5 kg/m3.
Compound [Cl][Ga]([Cl])[Cl] + CC[n+]1ccn(C)c1.[Cl-] has a mass density (298.15 K, 101 kPa, x1 = 0.5) of 1474.5 kg/m3, a mass density (303.15 K, 101 kPa, x1 = 0.5) of 1470.5 kg/m3 and a mass density (308.15 K, 101 kPa, x1 = 0.5) of 1467.1 kg/m3. The mass density (313.15 K, 101 kPa, x1 = 0.5) was 1462.9 kg/m3, the mass density (318.15 K, 101 kPa, x1 = 0.5) was 1458.2 kg/m3 and the mass density (323.15 K, 101 kPa, x1 = 0.5) was 1454.1 kg/m3. The mass density (328.15 K, 101 kPa, x1 = 0.5) was 1449.2 kg/m3 and the mass density (338.15 K, 101 kPa, x1 = 0.5) was 1441.3 kg/m3.
Work on CCCCCCCCn1cc[n+](C)c1.F[B-](F)(F)F + CO yielded a mass density (298.15 K, 101 kPa, x2 = 0.5539) of 1054.5 kg/m3.
C[P+](c1ccccc1)(c1ccccc1)c1ccccc1.[Br-] + OCCO showed a mass density (298 K, 101.3 kPa, x1 = 0.2) of 1232 kg/m3.
Work on CCCC[n+]1ccn(C)c1.O=S(=O)([O-])C(F)(F)F + O yielded a mass density (293.72 K, 101.3 kPa, x2 = 0.0088) of 1293.5 kg/m3, a mass density (298.4 K, 101.3 kPa, x2 = 0.0088) of 1290.3 kg/m3 and a mass density (322.87 K, 101.3 kPa, x2 = 0.0088) of 1271.3 kg/m3. The mass density (332.92 K, 101.3 kPa, x2 = 0.0088) was 1263.8 kg/m3 and the mass density (352.7 K, 101.3 kPa, x2 = 0.0088) was 1248.2 kg/m3.
